These are literature values, as cited in US9850475B2 (priority 2011, dated 2017).

Structures are written as SMILES.

For the series the following is noted: negatively charged side chain.

On to `N[C@@H](CS(=O)(=O)O)C(=O)O` [cysteic acid], for which the “pKa of side chain” value is recorded as 1.9.
